The campaign covered roughly 310,000 compounds. About 14,000 (4.5%) showed an effect of 50% or more. The effect is printed as a negative number. This is one part of the list. Where a SMILES comes first, the peptide text is derived from it. The star is where a group is joined. Boc = CC(C)(C)OC(=O)*
Target: human ether-à-go-go-related gene (hERG) potassium channel (human, UniProt Q12809)
Assay: primary screen, population patch clamp on CHO cells stably expressing hERG
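Note: peak tail current of the secondary pulse compared with the same well before compound.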

Sequence of human ether-à-go-go-related gene (hERG) potassium channel (Q12809 whole entry, looked up): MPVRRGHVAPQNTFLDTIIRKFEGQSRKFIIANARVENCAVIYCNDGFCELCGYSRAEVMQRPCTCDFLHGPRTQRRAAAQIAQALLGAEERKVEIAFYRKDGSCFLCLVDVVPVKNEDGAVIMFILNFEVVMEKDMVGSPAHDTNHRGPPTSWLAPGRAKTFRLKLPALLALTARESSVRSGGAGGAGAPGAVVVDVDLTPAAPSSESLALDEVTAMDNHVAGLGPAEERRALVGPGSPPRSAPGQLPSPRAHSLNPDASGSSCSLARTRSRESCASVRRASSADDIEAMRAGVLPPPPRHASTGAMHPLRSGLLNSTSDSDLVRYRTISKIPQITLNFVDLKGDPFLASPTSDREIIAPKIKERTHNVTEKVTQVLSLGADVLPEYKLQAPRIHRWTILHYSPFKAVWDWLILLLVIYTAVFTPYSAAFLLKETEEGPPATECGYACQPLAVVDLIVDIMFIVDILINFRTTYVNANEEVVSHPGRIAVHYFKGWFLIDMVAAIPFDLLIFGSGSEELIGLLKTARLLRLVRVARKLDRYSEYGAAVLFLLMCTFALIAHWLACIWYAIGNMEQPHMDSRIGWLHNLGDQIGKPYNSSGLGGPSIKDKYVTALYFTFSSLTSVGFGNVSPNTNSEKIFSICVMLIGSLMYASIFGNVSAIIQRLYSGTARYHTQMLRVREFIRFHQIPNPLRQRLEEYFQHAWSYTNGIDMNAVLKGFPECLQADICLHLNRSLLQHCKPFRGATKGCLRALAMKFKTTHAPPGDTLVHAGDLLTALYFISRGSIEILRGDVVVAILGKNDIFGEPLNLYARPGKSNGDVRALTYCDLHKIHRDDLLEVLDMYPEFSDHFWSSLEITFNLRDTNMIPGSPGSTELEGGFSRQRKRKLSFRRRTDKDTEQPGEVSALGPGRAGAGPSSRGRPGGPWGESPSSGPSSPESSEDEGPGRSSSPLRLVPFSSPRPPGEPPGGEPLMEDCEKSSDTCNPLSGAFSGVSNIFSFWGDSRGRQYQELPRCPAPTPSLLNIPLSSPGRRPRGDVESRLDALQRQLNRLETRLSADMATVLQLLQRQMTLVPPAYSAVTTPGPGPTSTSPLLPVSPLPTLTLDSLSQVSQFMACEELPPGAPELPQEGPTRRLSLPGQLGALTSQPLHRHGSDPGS

In order of falling “hERG current change (%, negative = inhibition) at 10uM” value:
1. O=C(CN(C(=O)CCC(=O)Nc1nccs1)c1ccc(F)cc1)NCCc1ccccc1  25%
2. CCOc1ccccc1N1C(=O)c2cccnc2C1=O  19.5%
3. COc1ccc(/C=C/C(O)=C(\C#N)c2nnc(N3CCOCC3)n2-c2ccccc2)cc1OC  19.3%
4. CCCCc1ccc(NC(=S)Nc2ccc(Cl)c(S(=O)(=O)N(C)C)c2)cc1  19%
5. Cc1cccc(N2C(=O)NC(=O)/C(=C/c3ccc([N+](=O)[O-])o3)C2=O)c1  18.8%
6. COc1ccc(OC(C)C(=O)NCC2CCCO2)cc1 (centres unmarked)  18.5%
7. COc1ccccc1NC(=O)c1cc(C(=O)Nc2ccccc2OC)cc(N2C(=O)CCC2=O)c1  16.9%
8. CCOC(=O)c1cc(C(=O)NC(C)c2ccccc2)c(=O)[nH]c1C (centres unmarked)  16.8%
9. O=C(O)Cc1n[nH]c(=O)c2ccccc12  16.1%
10. O=C(c1cc(NC(=O)C23CC4CC(CC(C4)C2)C3)cc(NC(=O)C23CC4CC(CC(C4)C2)C3)c1)N1CCCCC1  15.8%
11. CCN(CC)N=Nc1[nH]nc2nc(C)cc(C)c12  15.6%
12. O=S(=O)(/N=C(/Nc1ccc(F)c(F)c1F)c1ccccc1)c1ccccc1  15.6%
13. Cn1c(=O)[nH]c(=O)c2c1nc(N1CCCCCC1)n2CC(N)=O  15.2%
14. BrCCOCCOc1ccc2ccccc2c1  14.4%
15. NS(=O)(=O)c1ccc(CNc2nc(-c3cccnc3)nc3ccccc23)cc1  14.4%
16. CC1=C(C(=O)NC(C)C)C2(CCC(C)CC2)OC1=O (centres unmarked)  13.7%
17. COc1ccc(OCC(=O)Nc2nonc2NC(=O)COc2ccc(OC)cc2)cc1  13.3%
18. COc1cccc2cc(C(=O)C3=C(O)C(=O)N(CCN4CCOCC4)C3c3cccs3)oc12 (centres unmarked)  13.1%
19. CCNc1nc(SC(C)C(=O)OC)nc(N(C)C)n1 (centres unmarked)  12.6%
20. CC(=O)Nc1ccc(S(=O)(=O)Oc2cccc(/C=C3\SC(N)=NC3=O)c2)cc1  11.7%
21. Cc1c(NC(=O)C(C)Sc2ncnc3ccccc23)c(=O)n(-c2ccccc2)n1C (centres unmarked)  10.9%
22. COc1ccc(CN2C(=O)c3cccnc3C2=O)cc1S(=O)(=O)NC1CCCCC1C (centres unmarked)  10.8%
23. O=C1OCc2ccc(NS(=O)(=O)c3ccc(C(F)(F)F)cc3)cc21  10.4%
24. CCOC(=O)CC1C(=O)NCCN1C1CCCC1 (centres unmarked)  10.3%
25. COc1ccc(-n2cnc3ccccc3c2=O)c([N+](=O)[O-])c1  10.1%
26. COCCNC(=O)c1ccc(C)c(S(=O)(=O)Nc2ccc(C)cc2)c1  9.68%
27. CCCN1C(=O)/C(=C2\SC(=S)N(c3c(C)n(C)n(-c4ccccc4)c3=O)C2=O)c2ccccc21  9.17%
28. COc1ccc(-c2ccc([C@H]3[C@H]4C=CC[C@@H](C)[C@@H]4C(=O)N3Cc3ccccc3)c(F)c2)cc1  9.16%
29. Cc1oc2cc3oc(=O)c(CCC(=O)NC4CC4)c(C)c3cc2c1C  8.94%
30. O=C(COC(=O)/C=C/c1cccc(F)c1)Nc1ccccc1-c1ccccc1  8.48%
31. CC1=CCC(C(=O)O)C(C(=O)Nc2ccc(-c3nc4ccc(C)cc4s3)cc2)C1 (centres unmarked)  7.8%
32. COc1cc(/C=N/NC(=O)Nc2ccccc2)ccc1OCCOc1ccccc1C  7.75%
33. Cc1ccc(C(C)NC(=O)/C(C#N)=C\c2c(C)[nH]c3ccccc23)cc1 (centres unmarked)  6.88%
34. CCCCNC(=O)C1COc2ccccc2O1 (centres unmarked)  6.72%
35. CC(C)CNC(=O)COC(=O)c1cccc(S(=O)(=O)NCC(F)(F)F)c1  5.98%
36. COc1ccc(/C=N/NC(=O)c2cccc([N+](=O)[O-])c2)cc1OC  5.28%
37. CCOc1ccc(C(=O)NN2CCOCC2)cc1  4.51%
38. Cc1cccc(C)c1N(CC(=O)N(C)Cc1ccccc1)S(C)(=O)=O  3.99%
39. CCOC(=O)CC1COCCN1C(=O)c1ccc2oc(Cc3ccccc3)nc2c1 (centres unmarked)  1.91%
40. Cc1ccc(C(=O)N2NC(c3ccccc3F)C3C(=O)N(c4cccc(C)c4)C(=O)C32)cc1 (centres unmarked)  1.87%
41. C/C(=N/NS(=O)(=O)c1ccc(F)cc1)c1ccc(NC(=O)c2ccc(C)o2)cc1  1.86%
42. CN(C(=O)CSc1nc2ccccc2n1C)C1CCS(=O)(=O)C1 (centres unmarked)  1.63%
43. CC(NC(=O)COc1ccc(N(C)S(=O)(=O)c2ccccc2)cc1)c1ccccc1 (centres unmarked)  1.23%
44. CCOC(=O)Cn1ncc(-c2ccccc2)c1N  0.943%
45. O=C(Nc1ncc(Cc2cccc(Cl)c2)s1)c1cccs1  0.893%
46. CCOC(=O)c1c(C)[nH]c(C(=O)OC/C(O)=C(\C#N)c2nc3ccccc3[nH]2)c1C  -2.01%
47. CC(C)OC(=O)CSc1nc2cccnc2n1C1CCCCC1  -3.79%
48. O=C1CC(N(C(=O)c2ccco2)c2ccc(F)cc2)C(=O)N1c1ccc(F)cc1 (centres unmarked)  -3.79%
49. CCOc1ccc(C2=CSC3=NCCN23)cc1  -4.08%
50. COc1cc(C(=O)NCCNc2nc3ccc(C)cc3cc2C#N)cc(OC)c1OC  -4.74%
51. CCCCOc1nc2ccccc2nc1NS(=O)(=O)c1ccc(F)cc1  -5.01%
52. NC(=O)C1(N2CCCCC2)CCN(C(=S)Nc2ccccc2)CC1  -5.2%
53. O=C(Cc1ccccc1)NNC(=O)c1ccccc1C(=O)O  -5.66%
54. CCC(C)C(NC(=O)OC(C)(C)C)C(=O)NC(Cc1ccccc1)C(=O)OC (stereo not drawn) (Boc-Ile-Phe-OMe; configuration not given here)  -6.13%
55. CCOC(=O)CCC(=O)Nc1ccc(S(=O)(=O)N2CCC(C)CC2)cc1  -6.28%
56. CCCCNC(=O)CCNC(=O)c1ccc(C(C)(C)C)cc1  -6.39%
57. CCOC(=O)c1sc(NC(=O)CSc2nnnn2-c2ccccc2)nc1C  -8.25%
58. CCc1ccc(NC(=O)C(=O)N/N=C(\C)CC(=O)Nc2ccccn2)cc1  -8.33%
59. Cc1ccc(NC(=O)CSCC(=O)NNC(=O)c2ccoc2C)cc1  -8.6%
60. CC(C)NC(=O)C1CCN(Cc2cnn(-c3ccccc3)c2-n2cccc2)CC1  -8.99%
61. Cn1c(C(O)c2ccc(Cl)cc2)nc(Cl)c1Cl (centres unmarked)  -9.61%
62. CCOc1ccc(S(=O)(=O)Nc2cccc(C(=O)N(C)CC(=O)Nc3cccc(OC)c3)c2)cc1  -9.89%
63. CCCn1c(N)c(C(=O)CSc2nc(C)cs2)c(=O)n(C)c1=O  -9.91%
64. COc1ccc(/C=C/C(=O)Nc2cccc(C(C)=O)c2)cc1  -11.5%
65. CC(=O)c1c(OC(=O)c2ccccc2)ccnc1C(F)(F)F  -11.8%
66. CCOc1ccc(N2CC(C(=O)NCc3ccccc3)CC2=O)cc1 (centres unmarked)  -12.3%
67. O=C(COC(=O)Cc1ccccc1)NNC(=O)c1ccc([N+](=O)[O-])cc1  -12.6%
68. CCCn1nnnc1NCc1ccccc1OCc1cccs1  -16.3%
69. COc1ccc2cc(C(=O)C3CCCN(C(=O)CSc4nnc(C)o4)C3)ccc2c1 (centres unmarked)  -17.2%
70. CCOC(=O)C1CCN(Cc2cnc(Oc3ccc(OC)cc3)s2)CC1  -17.3%
71. Cc1cc2nc(C3CCN(C(=S)NCC(C)C)CC3)[nH]c2cc1C.O=C(O)C(=O)O  -20.4%
72. CCOC(=O)c1c(-c2ccc(F)cc2)csc1NC(=O)C1CC=CCC1C(=O)O (centres unmarked)  -22.3%
73. C=C(C)Cn1c(C2CC(=O)N(c3ccccc3F)C2)nc2ccccc21 (centres unmarked)  -27%
74. S=C(N/N=C/c1ccco1)NC1CC2CCC1C2 (centres unmarked)  -27.3%
75. Cc1ccc(Nc2c(-c3ccco3)nc3nc(C)cc(C)n23)cc1  -29.1%
76. OC(CNCC1CCCO1)Cn1c2ccc(Br)cc2c2cc(Br)ccc21 (centres unmarked)  -30%
77. C=CCn1c(COc2ccc(Cl)cc2)nnc1SCC(=O)NCC(=O)OCC  -31.4%
78. Cc1cccc(-n2c(C)cc(C(=O)NC3CCCCC3)c2C)c1  -32.7%
79. CC(C)CCn1c(N2CCN(c3cccc(Cl)c3)CC2)nc2c1c(=O)[nH]c(=O)n2C  -34.8%
80. O=C(NCc1cccnc1)c1cccc(S(=O)(=O)NCc2ccccc2)c1  -35.2%
81. CCOC(=O)N1CCC(NCCNC(=O)c2ccc(F)c(F)c2)CC1.Cl  -37.3%
82. CCOC(=O)Cn1nc(C)c(NC(=O)COc2ccc([N+](=O)[O-])cc2)c1C  -40.6%
83. CCCNS(=O)(=O)c1ccc(OCC(=O)Nc2ccccc2F)cc1  -43%
84. C=CCNC(=S)N1CCN(CCN=CC2=C(O)CC(c3ccc(Cl)cc3)CC2=O)CC1 (centres unmarked)  -66.4%
85. O=C(CN1CCN(Cc2ccccc2)CC1)Nc1cccc(C(F)(F)F)c1  -71.6%
86. COc1ccccc1-c1ccc(SCC(=O)NC2CCCCC2)nn1  -72%
